In article PMC6212790 one finds binding signal data, which are given here for 110 sequences.

The other results are listed elsewhere or left out. At the low end of the ranking the order means little.

The test addresses T1, GST-Rok-C97-191 (UniProt O34857).
T1 sequence: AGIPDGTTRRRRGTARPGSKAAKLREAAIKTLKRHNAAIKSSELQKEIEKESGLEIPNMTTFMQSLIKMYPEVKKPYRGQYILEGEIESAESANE
The test can be described thus: protein binding microarray.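 Also: rank score from −0.5 (least bound) to 0.5 (best bound).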 The following applies: Rok is a gene silencer of Bacillus subtilis; high values mean tight binding; most listed sequences are background and not binding sites; double strand, one strand shown.
Sequence ATAACGTA had a binding signal of 0.143 E-score.

The sequence CACCACAC yielded a binding signal of -0.0459 E-score. In the case of TCCCATCA it was 0.0869 E-score. With TGAATTAA, the binding signal came to 0.0945 E-score. The value for CCCAACGC was -0.254 E-score; that for ACTATCTA was 0.364 E-score. The value for GAAGGACA was -0.106 E-score.

As for GTGCGCCA, the binding signal is -0.181 E-score. On to CAGGGCGG, for which the binding signal is -0.234 E-score. AGGGATTA: the binding signal is -0.0766 E-score. In the case of GATGTCTA it was 0.0496 E-score; in that of GCCCAAAC, -0.284 E-score. For CGATGATA, the binding signal stood at 0.153 E-score. The value for CGAACACG was -0.101 E-score. In turn, GATAAGGC had a binding signal of -0.0888 E-score. In the case of ATTTAGTC, the binding signal came to 0.064 E-score. The value for GCCGCAGC was -0.399 E-score; that for ACATGACA was -0.00816 E-score. In the case of CAGGTTGG it was -0.032 E-score; in that of TGTTTCAA, 0.117 E-score. In the case of ACCCTTGC it was -0.283 E-score. For ATCATGTC, the binding signal is -0.0597 E-score. Sequence GCCTCTCC came in with a binding signal of -0.327 E-score. For CTCTCGGC, the binding signal is -0.156 E-score.

The sequence CTTGGGTC displayed a binding signal of -0.162 E-score. The value for AGATTATC was 0.264 E-score; that for GACTACAC was -0.000838 E-score. Sequence CTAGAACA had a binding signal of 0.166 E-score. As to CAATGTTC, the binding signal came out at 0.0364 E-score. In the case of GCAGTCAA it was -0.132 E-score; in that of AGTGGCTG, -0.0693 E-score; in that of ATAGCGAG, 0.0604 E-score.

In turn, AGACGTCT showed a binding signal of 0.0885 E-score.

In turn, AAGTAGGA had a binding signal of 0.0873 E-score.

As to TCCACCAA, the binding signal is -0.197 E-score.

As for AGCTTTTG, the binding signal was -0.0272 E-score. Take CGGCTTAC: the binding signal was -0.204 E-score. The value for TACCAAGA was 0.143 E-score; that for CCCATTTA was -0.101 E-score. The sequence CGGGAGTC returned a binding signal of -0.144 E-score. In the case of CTGTCGTC it was -0.189 E-score; in that of AACCTGGA, -0.238 E-score. The value for ACTATAAA was 0.322 E-score; that for ACGGACAC was -0.0606 E-score; that for ATTTTATC was 0.328 E-score. In the case of CACGCAAA it was -0.0897 E-score. Take CGAGCAGC: the binding signal was -0.0166 E-score. The value for CATTGACC was -0.115 E-score; that for ATTAGTGA was 0.126 E-score; that for ATTCTAAC was 0.216 E-score. In the case of GCACAGGC it was -0.199 E-score; in that of ATACGTAC, 0.304 E-score; in that of ACGTTAAT, 0.172 E-score. The value for ATTACTAG was 0.392 E-score.

With ATCTGGGC, the binding signal was -0.117 E-score.

For the sequence AGGGGGCG, the binding signal is -0.328 E-score.

Take AAGCTCAT: the binding signal worked out at 0.0848 E-score. As to CGAAAATA, the binding signal is 0.204 E-score. In the case of ATGACTTG it was -0.13 E-score; in that of ATGCCTTA, 0.0962 E-score. On to TAGGGAAA, for which the binding signal was found to be 0.102 E-score. In the case of GAGACATC it was -0.0542 E-score; in that of GTACGCGA, 0.125 E-score.

With AGTAATCG, the binding signal turned out to be 0.0918 E-score. In the case of CAACAACA it was 0.152 E-score; in that of CGTCTCTC, -0.178 E-score; in that of ACTTGGGA, -0.0569 E-score.

In turn, GATAAAAC had a binding signal of 0.211 E-score. AGGTTACC: the binding signal is -0.0423 E-score. The value for AGGGACCA was -0.0833 E-score; that for ATTCTTAG was 0.0803 E-score; that for CGGTGCGC was -0.271 E-score. The value for ATAAGATA was 0.372 E-score. The value for ACTTCGAC was 0.00083 E-score; that for GAAACTTC was 0.204 E-score; that for AACCCGCA was -0.235 E-score. Sequence ATCACTAG had a binding signal of 0.212 E-score. CAATGTTA had a binding signal of 0.195 E-score.

On to CTATAGCA, for which the binding signal stood at 0.132 E-score. On to GCTTGGTA, for which the binding signal was -0.0211 E-score. The value for ACAACACG was 0.0409 E-score. The sequence GGCAGACA yielded a binding signal of 0.0591 E-score. The value for AACGACTA was -0.0698 E-score. For AACAAGAG, the binding signal is -0.0722 E-score.

For the sequence CTTAACGC, the binding signal was -0.207 E-score.

As for AGCGAGAT, the binding signal is -0.133 E-score. GCAGACTA came in with a binding signal of 0.0523 E-score. In the case of CTCACTAC it was -0.0136 E-score.

In turn, AACGTAGA returned a binding signal of 0.132 E-score. Sequence GCGATAGA returned a binding signal of 0.19 E-score. AAAAAGGA yielded a binding signal of 0.00634 E-score. The value for CGAGCTAG was 0.00213 E-score. In the case of GGCCGTGA it was -0.25 E-score; in that of GGACGTAC, 0.00495 E-score. The value for CGCAGACA was -0.113 E-score.

Sequence CAATATCA gave a binding signal of 0.152 E-score. In the case of GTTCTGGA it was 0.0518 E-score. In the case of GGCAATCA it was -0.0587 E-score; in that of CGAATGTA, 0.201 E-score. Take TGGGAGAA: the binding signal stood at 0.102 E-score. The value for CGGCGGAG was -0.206 E-score.

Sequence AGGACAAA came in with a binding signal of -0.0842 E-score. As to GTGAGCCA, the binding signal was -0.215 E-score. ACGAGTAA gave a binding signal of 0.12 E-score. Turning to CTAAAGTC, the binding signal is 0.0658 E-score. In the case of CACCCGGA it was -0.242 E-score; in that of CGAAGTCG, -0.164 E-score. Take ATCGGTAG: the binding signal was found to be 0.108 E-score. The value for GAAGAGCA was -0.0308 E-score. On to ATCAGGCG, for which the binding signal was found to be 0.0336 E-score.
